# From PubChem BioAssay AID504832 (National Center for Advancing Translational Sciences (NCATS), 2011)
# Values joined by “and” are separate entries in the source; they are usually repeats but may differ in a detail not shown here. Identical values can stand only once. About 18,000 (5.8%) of roughly 310,000 compounds were called active. Inconclusive results, whose numbers are uncertain, are shown with a selection of clear calls. The call rests on the fitted dose curve; in most records, active means well fitted inhibition curve with a large enough effect; inconclusive means small, poorly fitted or top-dose-only effect, or another doubt; inactive means no such curve, though single readings can be large or run the other way. Potencies beside an inconclusive call are fits to weak or partial responses and may not hold up.
# Assay: Primary qHTS for delayed death inhibitors of the malarial parasite plastid, 48 hour incubation
# Conditions: P. falciparum luciferase growth in erythrocytes; series mostly up to 28.7 µM
# In short: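 Growth was read as firefly luciferase luminescence after a 48 h, 37 C, 5% CO2 exposure of compounds to reporter-bearing P. falciparum cultures (0.1% parasitemia, 2% hematocrit final) in Albumax-supplemented RPMI 1640.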
# Potency means the concentration at half of the fitted maximal effect; tags describe the fitted curve by direction and shape.
row,Structure (SMILES),Potency
1,CCC(CC)NC(=O)COc1ccc(OC)cc1C=O,"inconclusive: 0.657 µM [inhibitor, full curve, poor fit]"
2,CN(CCO)c1nc(N)c2c(N)nc3c(c2c1C#N)CC(=O)N3Cc1cccs1,"inconclusive: 0.0208 µM [inhibitor, full curve, poor fit]"
3,O=C(CC1SC(N2CCOCC2)=NC1=O)Nc1ccccc1Cl (stereo not given),inactive
4,COc1ccc(C(c2sc3nc(C)nn3c2O)N2CCC(C(N)=O)CC2)cc1OC (stereo not given),"inconclusive: 10.4 µM [inhibitor, single point]"
5,O=C(CSc1ccc2ccccc2n1)NCCC1=CCCCC1,"inconclusive: 18.5 µM [inhibitor, single point]"
6,Cc1nc([N+](=O)[O-])cn1CC(=O)Nc1ccc(F)c(Cl)c1,inactive
7,c1csc(-c2nnc(N3CCCCCC3)c3ccccc23)c1,inactive
8,O=C(CCSCc1ccc(Cl)cc1)NC1CCCC1,"inconclusive: 0.0147 µM [inhibitor, full curve, poor fit]"
9,COC(=O)c1cn(-c2ccccc2)nc1-c1ccc(OC)cc1,inactive
10,Cn1nc(C(F)(F)F)c(C(=O)Nc2ccc(F)cc2F)c1Sc1cccc(Cl)c1,"inconclusive: 14.7 µM [inhibitor, partial curve, poor fit]"
11,O=c1cc(-c2ccccc2Cl)oc2c(NS(=O)(=O)c3ccccc3C(F)(F)F)ccc(O)c12,"inconclusive: 18.5 µM [inhibitor, single point]"
12,O=c1oc(/C=C/c2ccc([N+](=O)[O-])s2)nc2ccccc12,"inconclusive: 18.5 µM [inhibitor, single point]"
13,Cc1ccc(Cl)cc1Nc1nc(-c2sc(NC(=O)c3cccc(Cl)c3)nc2C)cs1,"inconclusive: 2.33 µM [inhibitor, full curve]"
14,COc1cccc(NC(=O)C(C)Sc2nnc(C3CC3)n2C2CC2)c1 (stereo not given),"inconclusive: 14.7 µM [inhibitor, single point]"
15,O=C(CN1CCN(Cc2ccc3c(c2)OCO3)CC1)Nc1cc(S(=O)(=O)N2CCCC2)ccc1Cl,"inconclusive: 14.7 µM [inhibitor, single point]"
16,Cc1cccc(NC(=O)c2nc[nH]c2C(=O)NC2CCN(C(=O)OC(C)(C)C)CC2)c1,"inconclusive: 16.5 µM [inhibitor, single point]"
17,CC(C)(C)c1ccc(C(=O)Nc2nnc(C3=COCCO3)o2)cc1,active: 14.7 µM
18,CC1(C)S/C(=N/N=C/c2ccco2)NC1=O,"inconclusive: 0.147 µM [inhibitor, full curve, poor fit]"
19,CN(C)S(=O)(=O)c1cccc(NC(=O)c2cccc(N3C(=O)CCC3=O)c2)c1,"inconclusive: 18.5 µM [inhibitor, single point]"
20,O=C(Cc1ccccc1)N/N=C/c1ccc([N+](=O)[O-])s1,active: 7.38 µM
21,CCC(=O)Nc1ccc(NC(=O)c2c(C)nc3ccccn23)cc1,inactive
22,CCN(C(=O)CSc1nnc(-c2ccccc2C)n1C)c1c(N)n(Cc2ccccc2)c(=O)[nH]c1=O,"inconclusive: 13.1 µM [inhibitor, single point]"

row,Structure (SMILES),Potency
1,Cc1ccnc(NCc2cc(C)ccc2O)c1,"inconclusive: 11.7 µM [inhibitor, single point]"
2,COc1ccc(N(C(=O)c2snc(C(N)=O)c2N)C(C(=O)NC2CCCC2)c2ccc(F)cc2)c(OC)c1 (stereo not given),"inconclusive: 16.5 µM [inhibitor, partial curve, poor fit]"
3,O=C(O)C(Cc1ccccc1)n1c(=S)[nH]c2ccccc2c1=O (stereo not given),"inconclusive: 0.0029 µM [inhibitor, full curve, poor fit]"
4,CCN(CC)S(=O)(=O)c1ccc2[nH]c(=O)cc(C(=O)Nc3cccc(C(C)=O)c3)c2c1,"inconclusive: 5.22 µM [inhibitor, partial curve, poor fit]"
5,COc1cccc2cc(NC(=O)C3CCCCC3)c(=O)oc12,inactive
6,CCCCC1=CC2=C(c3ccco3)C(=O)C(C)(OC(=O)c3ccc(OC)cc3)C(=O)C2=CN1c1ccccc1 (stereo not given),"inconclusive: 18.5 µM [inhibitor, single point]"
7,CCOc1ccc(S(=O)(=O)Nc2ccc(C(=O)N/N=C/c3c(C)nn(-c4ccccc4)c3N3CCCC3)cc2)cc1,"inconclusive: 4.65 µM [inhibitor, partial curve, poor fit]"
8,CC(C)Cn1c(-c2csc3c2CCCC3)n[nH]c1=S,active: 11.7 µM
9,CCN(CC)S(=O)(=O)c1ccc(OCC(=O)NCc2ccccc2)cc1,"inconclusive: 8.28 µM [inhibitor, partial curve, poor fit]"
10,Cc1sc2ncnc(SC(C)C(=O)N3c4ccccc4Sc4ccccc43)c2c1C (stereo not given),active: 1.65 µM
11,O=C(c1cc2c(s1)-c1ccccc1OC2)N1CCc2ccccc2C1,inactive
12,O=C(COC(=O)/C=C/c1cccc(C(F)(F)F)c1)NCc1ccccc1,inactive
13,Cc1ccc(S(=O)(=O)CCC(=O)Nc2nnc(-c3ccc(F)cc3)o2)cc1,"inconclusive: 18.5 µM [inhibitor, single point]"
14,O=C1NC2(CCCC2)C(=O)N1CC(=O)N(Cc1ccccc1)c1ccccc1,"inconclusive: 14.7 µM [inhibitor, single point]"
15,CCOc1ccc(-n2c(C)cc(/C=N/NC(=O)C(N)=O)c2C)cc1,inactive
16,Cc1csc(NC(=O)c2ccc(C(=O)Nc3nc(C)cs3)cc2)n1,"inconclusive: 3.29 µM [inhibitor, full curve]"
17,O=C(CC(Nc1ccc(F)cc1)C(=O)O)c1ccccc1 (stereo not given),inactive
18,Cc1c(C(=O)O)sc2nc(-c3cccs3)cc(C(F)(F)F)c12,inactive
19,CCS(=O)(=O)c1nc2ccccc2n1CC(=O)N1CCOCC1,"inconclusive: 18.5 µM [inhibitor, partial curve, poor fit]"
20,COc1ccccc1NC(=O)C1Cc2ccccc2CN1C(=O)c1ccco1 (stereo not given),"inconclusive: 14.7 µM [inhibitor, single point]"
21,C=CCN(c1ccccc1)S(=O)(=O)c1cccc(C(=O)OCC(=O)NC2CC2)c1,"inconclusive: 6.57 µM [inhibitor, partial curve]"
22,COc1cc(-c2nc3ccccc3nc2-c2ccc(O)c(OC)c2)ccc1O,"inconclusive: 10.4 µM [inhibitor, single point]"

row,Structure (SMILES),Potency
1,CC(C)[N+](C)(CCOC(=O)C1c2ccccc2Oc2ccccc21)C(C)C,"inconclusive: 16.9 µM [inhibitor, single point] and inconclusive: 2.62 µM [inhibitor, full curve]"
2,N#CCC(=O)Nc1ccc(C(=O)OC(C(=O)Nc2cc(C(F)(F)F)ccc2Cl)c2ccccc2)cc1 (stereo not given),"inconclusive: 18.5 µM [inhibitor, single point]"
3,COc1ccc(C(=O)N/C(=C\c2cn(S(=O)(=O)N(C)C)c3ccccc23)C(=O)NCCN2CCOCC2)cc1,inactive
4,CC(C)Cc1nc2oc3c(NCCCN4CCOCC4)ncnc3c2c2c1CCC2,"inconclusive: 16.5 µM [inhibitor, partial curve]"
5,COc1cc(CN2CCC(CO)(CCOc3ccccc3)CC2)cc(OC)c1OC,active: 5.86 µM
6,CCO[C@H]1OC(C(=O)N2CCOCC2)=C[C@@H](c2coc3ccccc3c2=O)[C@@H]1CCCO,inactive
7,COCCN1CCn2c(nc3cc(NC(=O)c4ccc(OC)cc4)ccc32)C1,"inconclusive: 14.7 µM [inhibitor, partial curve, poor fit]"
8,O=C(Nc1ccc(S(=O)(=O)N2CCCC2)cc1)c1ccc(Br)o1,"inconclusive: 13.1 µM [inhibitor, single point]"
9,CCOC(=O)c1c(-c2ccc(F)cc2)csc1NC(=O)CN1C(=O)NC2(CCCCC2C)C1=O (stereo not given),active: 10.4 µM
10,Cc1ccccc1NS(=O)(=O)c1cccc(-c2nnc(-c3ccccc3)o2)c1,inactive
11,COc1ccc(CCC(=O)N2CCN(S(=O)(=O)c3ccc(C)cc3)CC2)cc1,"inconclusive: 9.28 µM [inhibitor, partial curve]"
12,O=C(CN1C2=NCCCN2c2ccccc21)c1ccc(Cl)cc1Cl,active: 0.37 µM
13,O=C(NCc1ccco1)c1ccc(Cn2c(=O)c3ccccc3n(Cc3ccc(Cl)cc3)c2=O)cc1,active: 11.7 µM
14,CCCN(C(=O)COC(=O)C12CCC(=O)N1c1ccccc1S2)c1c(N)n(Cc2ccccc2)c(=O)[nH]c1=O (stereo not given),inactive
15,COc1ccc(NC(=O)c2cc(S(=O)(=O)N3CCCCC3)c[nH]2)cc1Cl,"inconclusive: 18.5 µM [inhibitor, partial curve, poor fit]"
16,O=C(Nc1ccccc1C(=O)N/N=C/c1ccc(F)cc1)c1ccccc1Br,"inconclusive: 13.1 µM [inhibitor, single point]"
17,Cn1c(C(=O)N2CCCC(C(=O)NCCCSC3CCCCC3)C2)cc2sccc21 (stereo not given),"inconclusive: 10.4 µM [inhibitor, partial curve, poor fit]"
18,COCCn1c(C)cc(C(=O)COC(=O)c2cccc(O)c2)c1C,"inconclusive: 3.7 µM [inhibitor, partial curve, poor fit]"
19,CCOC(=O)N1CCN(C(=O)c2c[nH]c3ccc(S(=O)(=O)N(C)c4ccccc4C)cc3c2=O)CC1,"inconclusive: 10.4 µM [inhibitor, single point]"
20,CCCOc1ccc(C(F)(F)F)cc1NC(=O)C1CC(=O)N(Cc2ccco2)C1 (stereo not given),"inconclusive: 10.4 µM [inhibitor, partial curve]"
21,O=S(=O)(Nc1ccc(-c2ccc3nncn3n2)cc1)c1ccccc1Cl,"inconclusive: 11.7 µM [inhibitor, partial curve]"
